{"source": "the supplement of paper PMC3334620", "note": "In all, about 33,000 sequences were measured (“E-score (-0.5 to 0.5)”: median about -0.016, highest 2% from about 0.31 on). Some of the results follow.", "data": [{"biological_target": "Cst6 (UniProt P40535)", "test": "PBM E-score (8-mer binding enrichment) (E-score (-0.5 to 0.5)); higher = stronger / more preferred TF binding; most listed sequences are background and not binding sites", "details": "protein concentration: 200 nM; construct: GST-DNA-binding domain", "procedure,_shortened": "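Universal all-10-mer Agilent arrays, double-stranded by primer extension on fresh or once-stripped slides, were probed with about 100-200 nM GST-tagged yeast transcription factors made by PURExpress. Fluorescent anti-GST detected bound protein, and masliner normalised the scans. E-scores from the Universal PBM Analysis Suite were given to each ungapped eight-base word pooled with its reverse complement.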", "values": [{"sequence": "AAACTTGG", "PBM E-score": -0.0317}, {"sequence": "TGTCAACA", "PBM E-score": 0.184}, {"sequence": "ACTCGGTG", "PBM E-score": -0.166}, {"sequence": "ATGTAACC", "PBM E-score": 0.0823}, {"sequence": "CAGACAAC", "PBM E-score": 0.0744}, {"sequence": "ACACGGAG", "PBM E-score": 0.0507}, {"sequence": "CTCTTTCC", "PBM E-score": -0.231}, {"sequence": "CCTACTGA", "PBM E-score": -0.147}, {"sequence": "GGGTCGGA", "PBM E-score": -0.18}, {"sequence": "ACTGGTGG", "PBM E-score": -0.292}, {"sequence": "GAACCTCA", "PBM E-score": 0.0588}, {"sequence": "GTGGACAA", "PBM E-score": 0.0549}, {"sequence": "CGAGTGTC", "PBM E-score": -0.16}, {"sequence": "AAGGGTCC", "PBM E-score": -0.331}, {"sequence": "CTATTACA", "PBM E-score": 0.158}, {"sequence": "TAAGCCCA", "PBM E-score": -0.0817}, {"sequence": "AACGTCCC", "PBM E-score": -0.173}, {"sequence": "CGATCGCC", "PBM E-score": 0.0309}, {"sequence": "CCAGCTAC", "PBM E-score": -0.25}, {"sequence": "GAAGTACA", "PBM E-score": 0.0779}, {"sequence": "AAAGGAGC", "PBM E-score": -0.125}, {"sequence": "CACGCTAC", "PBM E-score": -0.134}, {"sequence": "ACTAGCCA", "PBM E-score": -0.0828}, {"sequence": "AAGACTCC", "PBM E-score": -0.19}, {"sequence": "CAGCTTTA", "PBM E-score": 0.0227}, {"sequence": "AGCGCCTA", "PBM E-score": 0.0545}, {"sequence": "CGGGTGTC", "PBM E-score": -0.108}, {"sequence": "CCACCACG", "PBM E-score": 0.0346}, {"sequence": "GCCAAGCC", "PBM E-score": -0.198}, {"sequence": "AACCTCAC", "PBM E-score": -0.101}, {"sequence": "CCAGTCTC", "PBM E-score": -0.234}, {"sequence": "ACGGATTA", "PBM E-score": 0.0825}, {"sequence": "AATGTGAA", "PBM E-score": 0.199}, {"sequence": "ACTGCGCT", "PBM E-score": -0.0786}, {"sequence": "TCGTACCA", "PBM E-score": 0.00431}, {"sequence": "CTAAACCA", "PBM E-score": -0.0854}, {"sequence": "ATATCATC", "PBM E-score": 0.337}, {"sequence": "ATAGGGAC", "PBM E-score": -0.231}, {"sequence": "GCGTTGCA", "PBM E-score": 0.0288}, {"sequence": "AAAGCCTG", "PBM E-score": -0.166}, {"sequence": "GCCTCGAA", "PBM E-score": 0.111}, {"sequence": "TAGGCCTA", "PBM E-score": -0.00445}, {"sequence": "ACTGGAGG", "PBM E-score": -0.14}, {"sequence": "GCTACCAA", "PBM E-score": -0.223}, {"sequence": "GCCGCGCC", "PBM E-score": 0.271}, {"sequence": "AGATAGTG", "PBM E-score": 0.078}, {"sequence": "CCTAGAAG", "PBM E-score": -0.0716}, {"sequence": "CTGAATTC", "PBM E-score": -0.0737}, {"sequence": "ACTCTGGA", "PBM E-score": 0.109}, {"sequence": "AGGCTTCA", "PBM E-score": -0.16}, {"sequence": "ATGTTCCA", "PBM E-score": -0.0403}, {"sequence": "AGCCACCA", "PBM E-score": -0.134}, {"sequence": "ATATATAG", "PBM E-score": 0.263}, {"sequence": "TCTAATAA", "PBM E-score": 0.243}, {"sequence": "ACGTATGC", "PBM E-score": 0.32}, {"sequence": "ATTGAGGA", "PBM E-score": -0.00723}, {"sequence": "AAGGGTGG", "PBM E-score": -0.273}, {"sequence": "TAAGAACA", "PBM E-score": 0.312}, {"sequence": "ACACAGTG", "PBM E-score": 0.15}, {"sequence": "GTTCTTTA", "PBM E-score": 0.164}, {"sequence": "GATCAACC", "PBM E-score": -0.136}, {"sequence": "ATTCATGC", "PBM E-score": -0.00753}, {"sequence": "GTTCGCTA", "PBM E-score": -0.0267}, {"sequence": "ACCCTGAA", "PBM E-score": -0.00114}, {"sequence": "AGCAACGA", "PBM E-score": 0.175}, {"sequence": "GATACGCA", "PBM E-score": 0.0359}, {"sequence": "GGGGCACA", "PBM E-score": -0.194}, {"sequence": "GGCAAGAA", "PBM E-score": 0.112}, {"sequence": "GAGCAGGA", "PBM E-score": -0.154}, {"sequence": "TCGCAAAA", "PBM E-score": 0.162}, {"sequence": "GGCGATAC", "PBM E-score": -0.011}, {"sequence": "TCGCTCAA", "PBM E-score": -0.091}, {"sequence": "TCGCGACA", "PBM E-score": -0.202}, {"sequence": "CCAGGGGA", "PBM E-score": -0.366}, {"sequence": "CTTACCGA", "PBM E-score": 0.0702}, {"sequence": "AAGCATGA", "PBM E-score": 0.157}, {"sequence": "AATGATGA", "PBM E-score": 0.334}, {"sequence": "CTGGGATA", "PBM E-score": -0.129}, {"sequence": "AGAATTTA", "PBM E-score": 0.224}, {"sequence": "TCGTTTAA", "PBM E-score": 0.0683}, {"sequence": "TCGCGAGA", "PBM E-score": 0.00437}, {"sequence": "AGCTACGG", "PBM E-score": -0.11}, {"sequence": "CCACCCAA", "PBM E-score": -0.141}, {"sequence": "AATAACGG", "PBM E-score": 0.17}, {"sequence": "GACGATGC", "PBM E-score": 0.0529}, {"sequence": "GCAACACC", "PBM E-score": 0.0326}, {"sequence": "ACGCGCCA", "PBM E-score": -0.111}, {"sequence": "AGTCAAGC", "PBM E-score": -0.31}, {"sequence": "CAAAGGAC", "PBM E-score": -0.268}, {"sequence": "ATTTTTAA", "PBM E-score": 0.293}, {"sequence": "CGATGGTA", "PBM E-score": -0.0931}, {"sequence": "CAACAAGG", "PBM E-score": 0.241}, {"sequence": "CTGTGCAC", "PBM E-score": -0.19}, {"sequence": "AAAAATGA", "PBM E-score": 0.256}, {"sequence": "AATGGGCA", "PBM E-score": -0.0629}, {"sequence": "CGAAACCG", "PBM E-score": -0.00628}, {"sequence": "CAACTATC", "PBM E-score": 0.00905}, {"sequence": "GCCACAGA", "PBM E-score": -0.221}, {"sequence": "CTCCATCA", "PBM E-score": -0.0314}, {"sequence": "GGTGGCAC", "PBM E-score": -0.136}, {"sequence": "CTCCTGTC", "PBM E-score": -0.0542}, {"sequence": "ATAAGGAG", "PBM E-score": -0.111}, {"sequence": "GCCGTTAC", "PBM E-score": 0.15}, {"sequence": "GGGTGACA", "PBM E-score": 0.243}, {"sequence": "AGTCGGAA", "PBM E-score": -0.0379}, {"sequence": "TCCAGCAA", "PBM E-score": -0.0356}, {"sequence": "CGGTTTAG", "PBM E-score": -0.204}, {"sequence": "AGCAGAAT", "PBM E-score": 0.143}, {"sequence": "ACAAAGCC", "PBM E-score": 0.0604}, {"sequence": "AGGTTCGA", "PBM E-score": 0.125}, {"sequence": "AATGATTG", "PBM E-score": 0.183}, {"sequence": "TAAACACA", "PBM E-score": 0.06}, {"sequence": "AGGATCCG", "PBM E-score": -0.174}, {"sequence": "ATGTCAAC", "PBM E-score": 0.251}, {"sequence": "GCGTCGGA", "PBM E-score": 0.0729}, {"sequence": "ATAAAAGA", "PBM E-score": 0.0946}, {"sequence": "GCTCTAAA", "PBM E-score": 0.0706}, {"sequence": "CCTATTCC", "PBM E-score": -0.00999}, {"sequence": "AGATCGGG", "PBM E-score": -0.326}, {"sequence": "TCCTGAAA", "PBM E-score": 0.0041}, {"sequence": "AGGTTATC", "PBM E-score": -0.114}, {"sequence": "CCGTCCAC", "PBM E-score": -0.0174}, {"sequence": "AGACTGTA", "PBM E-score": -0.089}, {"sequence": "ATCACGTC", "PBM E-score": 0.286}, {"sequence": "AATGAAAA", "PBM E-score": 0.236}, {"sequence": "AATGGTGG", "PBM E-score": -0.166}, {"sequence": "ACTGTCGG", "PBM E-score": -0.209}, {"sequence": "CTACGATA", "PBM E-score": 0.0681}, {"sequence": "GTGGCGCA", "PBM E-score": 0.0878}, {"sequence": "AGCTAACT", "PBM E-score": 0.0381}, {"sequence": "ACAGTATC", "PBM E-score": 0.215}, {"sequence": "CAAGATTC", "PBM E-score": -0.0249}, {"sequence": "GAATCAGA", "PBM E-score": 0.11}, {"sequence": "AGATAGAC", "PBM E-score": -0.0649}, {"sequence": "ATATATGC", "PBM E-score": 0.154}, {"sequence": "ACGCTTGG", "PBM E-score": -0.154}, {"sequence": "CTGCTTGA", "PBM E-score": -0.141}, {"sequence": "CGCGCATC", "PBM E-score": -0.0674}, {"sequence": "ATCTGGGA", "PBM E-score": -0.197}, {"sequence": "CAAGGGCG", "PBM E-score": -0.0486}, {"sequence": "CTCCTTCC", "PBM E-score": -0.146}, {"sequence": "ACGCAGAT", "PBM E-score": -0.0398}, {"sequence": "ATGAATAA", "PBM E-score": 0.0436}, {"sequence": "GACGGACC", "PBM E-score": -0.0349}, {"sequence": "AGGGAACT", "PBM E-score": -0.298}, {"sequence": "GCTATGGA", "PBM E-score": -0.167}, {"sequence": "AAGAAAAG", "PBM E-score": 0.155}, {"sequence": "TCGTACAA", "PBM E-score": 0.169}, {"sequence": "CCAAGCCA", "PBM E-score": -0.19}, {"sequence": "GAAGGCCA", "PBM E-score": -0.209}, {"sequence": "AATAACAA", "PBM E-score": 0.228}, {"sequence": "CACTACTG", "PBM E-score": 0.00362}, {"sequence": "TCGACACA", "PBM E-score": 0.108}, {"sequence": "ATAGAGTA", "PBM E-score": 0.151}, {"sequence": "GGTGCGAA", "PBM E-score": -0.093}, {"sequence": "ACAAGCCG", "PBM E-score": -0.029}, {"sequence": "GAACACGA", "PBM E-score": -0.0372}, {"sequence": "GGTTCAAC", "PBM E-score": -0.0915}, {"sequence": "AAGATAGT", "PBM E-score": 0.0932}, {"sequence": "CCCAGATA", "PBM E-score": -0.15}, {"sequence": "ATTGACCG", "PBM E-score": 0.0831}, {"sequence": "ATCTTATA", "PBM E-score": 0.152}, {"sequence": "ACCATTCA", "PBM E-score": 0.127}, {"sequence": "CAACGCGG", "PBM E-score": 0.147}, {"sequence": "ACAGCCGC", "PBM E-score": 0.0813}, {"sequence": "ACTTTGTC", "PBM E-score": 0.0198}, {"sequence": "CCAGCTCA", "PBM E-score": -0.146}, {"sequence": "GGGGCGTA", "PBM E-score": -0.114}, {"sequence": "CACTACCG", "PBM E-score": -0.223}, {"sequence": "CCGGCTGA", "PBM E-score": -0.207}, {"sequence": "TGGCTACA", "PBM E-score": 0.0815}, {"sequence": "CAAACAAA", "PBM E-score": 0.114}]}]}
